Laboratory results reported in the supplement of paper PMC4466236.
The full ranking holds about 33,000 sequences; the median of “E-score (dimensionless, -0.5 to 0.5)” is about -0.058, and the highest 2% start at about 0.35. Some of the results follow.

tested on: MvaT; assay: PBM 8-mer E-score (mean of HK and ME arrays) (E-score (dimensionless, -0.5 to 0.5)); higher = stronger relative binding preference; most listed sequences are background and not binding sites
Procedure, shortened: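 Full-length P. aeruginosa MvaT carrying an N-terminal glutathione S-transferase tag was tested by protein binding microarray following a previously described protocol. Two universal double-stranded 60-mer arrays, ME and HK, were used, each with a constant 25-mer primer region and a variable 35-mer region covering all 8-mers. The rank-based E-score is the mean of the two arrays, parsed with a custom script. Its range runs from -0.5 to 0.5 for each 8-mer.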

Sequence | PBM 8-mer E-score
AAAATATC | 0.314
AGAATAAC | 0.232
AATATCGC | 0.227
CGCGATTA | 0.0811
CCCAAACA | 0.16
AGTGACCC | -0.144
ATTGATCA | 0.146
GATTTCGC | -0.1
GAGTTTCA | -0.0971
CCACGCGC | -0.112
GCGTGTAC | -0.107
CCGTTGTA | -0.0184
CAAGTTAG | 0.194
CTCTAAAA | 0.0251
CACGCAGC | -0.256
ATAGATCG | 0.0256
AATACTTG | 0.191
AGTACGTC | 0.0613
AAGATTTA | 0.295
CGCCTAAA | -6.02e-05
AGGTCAGC | -0.158
CCCATGCG | -0.209
TATATCAA | 0.352
GCAGCTAC | -0.276
AACAACCT | -0.0621

Sequence | PBM 8-mer E-score
AACACGTC | -0.139
AGGGTATC | -0.165
ACACTCTC | -0.133
AGCGAAAC | -0.0107
CGCCAACC | -0.0585
GGTAGAAA | 0.119
GCATCTCC | -0.238
AGATATAT | 0.46
CCGCCACA | -0.0657
CTTTTTCC | -0.118
CGATCCCG | -0.18
TATGGTGA | 0.0346
GAGGGGCC | -0.335
CTCCGCCA | -0.247
ACTTGCCC | -0.0722
CCTTACAA | 0.0169
AGTAGTAG | 0.0232
AATATACT | 0.421
CAAACTAA | 0.376
AAGGATTC | -0.0399
GGGACCAA | -0.171
GCTCAGCC | -0.291
GAGGACAA | -0.0507
CGGAGGTC | -0.226
TACAACGA | 0.137

Sequence | PBM 8-mer E-score
CAATTTGA | 0.261
ATAGCCCA | -0.0269
CCCCGCGA | -0.0625
CCCTGACA | -0.102
CATAGTTA | 0.178
ACTTCGCT | 0.0588
ATAAGCTC | 0.117
ACACGCTG | -0.0855
CGAAACCC | -0.303
CCAGCTGC | -0.221
GATTTGAC | -0.0774
AATCTATG | 0.018
AGCGTGGC | -0.203
CTGTCGGC | -0.23
CCGGTCTC | -0.177
AGCATGCG | -0.24
ACTAGAGA | -0.0368
CTATGTGC | -0.00324
CGGGCGAC | -0.164
AGTCGTGA | -0.172
GTACCGGA | -0.176
GGGGGTTA | -0.187
CCGGGATA | -0.0766
CGCCGTCC | -0.22
AGTACTCA | 0.089

Sequence | PBM 8-mer E-score
ACAATCCC | 0.129
AAGTTGGT | 0.23
GCGCGCAA | 0.159
CTACTATA | 0.292
ACAAGGAA | -0.0659
CAAGTGTA | 0.0572
CTAGCACC | -0.205
ACCTTCCC | -0.163
CGCTGACC | -0.0604
AGTTAAGA | 0.195
AGCACTTG | -0.104
GACTGGTA | -0.0435
AAACGCAG | -0.0873
AAGTTCAG | 0.247
CGTATTGC | 0.0393
ACGTTGGC | -0.194
GACCATAC | -0.0941
GGCGACCC | -0.323
GGGGTTAC | -0.246
CTTGGACC | -0.179
CGGGAATA | 0.0782
AGCAGAAC | -0.0738
GCGCGTAC | -0.156
CAGCCCGG | -0.218
AGTCATCC | -0.183

Sequence | PBM 8-mer E-score
CATAAGGA | -0.0113
TCAAGAGA | -0.145
ATCGCTCC | -0.14
CTCCGACA | -0.0612
ACTCTTGG | -0.0512
AGGCTCTA | -0.116
CCCATCGG | -0.267
AACTGATC | -0.00863
CCGCAACG | -0.129
ATTATCAA | 0.321
TCATATCA | 0.138
CCATCCAC | -0.18
GTTGGATA | 0.195
ATAGGGTG | 0.068
ACTAATCA | 0.173
CAATTTCG | 0.0861
ACACCGAG | -0.157
CCTGGAAG | -0.186
ACTGGCGA | -0.0124
ACGACATC | -0.187
CACTACCC | -0.265
AATGGAAG | -0.13
CTGCCGAA | -0.071
AAAGAGAG | -0.103
CCCGGAAA | -0.196

Sequence | PBM 8-mer E-score
ACTAGCGC | -0.278
CAGGATCG | -0.115
GACCACCC | -0.296
TACACGAA | 0.123
ATCCGTTG | 0.0118
ACCTAGTC | -0.0549
AGGGCTAT | -0.13
TCACATCA | -0.0704
CCTCATGA | -0.181
ATGGATGA | 0.0515
CAAGAGGG | -0.174
AACGTATG | -0.00901
ACCACCCG | -0.269
CGGGAGAA | -0.0693
AGGAGTTA | 0.108
TACGGGAA | -0.000902
ATTTGTCG | 0.142
ACTATGAC | 0.159
AGGGATGC | -0.182
AAATTACG | 0.256
ACGAACTG | 0.115
AAGCCTTG | -0.239
ACGTAAGT | 0.121
GACTATGC | -0.0746
CCTATCCA | -0.122

Sequence | PBM 8-mer E-score
CCGGAGCC | -0.284
ATACGATA | 0.148
GCCTGGCC | -0.189
ACCTTGAA | -0.101
CCCATCCC | -0.159
GCGTCGAA | -0.0372
CCTGCGAA | -0.106
CAGCAGAA | -0.0822
CTAACTAG | 0.0036
CTACACGA | -0.0126
AAACATCC | 0.13
ATGGCAAA | -0.0106
AACATGAG | 0.146
CACACACA | 0.0908
AGGCACAT | -0.0523
CGCATGAA | -0.0415
AGAAGAAC | -0.0192
AATGTATC | 0.252
TAAAACGA | 0.205
CAAGTGAG | -0.181
AATAGAGT | 0.0931
CAATGTAA | 0.236
ACAACCAG | -0.0427
ATGTACCC | 0.0866
ATTAATCA | 0.405

Sequence | PBM 8-mer E-score
TCATGACA | -0.0413
GAACGACC | -0.135
CCTGAAGA | 0.0868
AAAACCGA | 0.0671
AGCAGGGA | -0.154
CTCCACAG | -0.203
AATGTCTG | -0.0324
AATCGAGG | 0.019
CGCGATGA | -0.0178
TCCCGTCA | -0.176
CCACAGAG | -0.0972
CCAAAACA | 0.0855
TCTATGAA | -0.00325
ATCCCAGA | -0.203
ACCTGCCA | -0.23
GGCTGCAA | -0.126
TGCTTCAA | 0.0137
ACATTCCA | 0.0119
ATAGAGGA | -0.0011
AGGCAGTG | -0.201
ACCTCTCG | -0.174
ATGTAGCG | 0.0264
AATGGATC | 0.0131
GAGATAAA | 0.08
ACCTCAGA | -0.115

Sequence | PBM 8-mer E-score
AGGCCGCC | -0.297
ACCGGCCA | -0.294
GAGATCCC | -0.302
CTCACAAC | -0.0135
TAATCGGA | -0.0465
ATCCTCGA | -0.108
CGTTAAGA | 0.0577
AGTCACAT | -0.0559
TGTGGTAA | 0.0918
ATGGTCAC | -0.131
CGCGAGAG | -0.158
ACGGAAAA | 0.0619
AACCGGAC | -0.0871
AAGTTGCA | 0.144
GAAGCAAA | -0.0956
AAGCGGCA | -0.0224
CAGTAGGC | -0.318
AACCCAAG | -0.0603
CGGGGCGA | -0.231
